{"source": "PubChem BioAssay AID602179", "about": "(National Center for Advancing Translational Sciences (NCATS), 2012)", "note": "Screen size: about 390,000 compounds; about 360 (0.092%) were called active. This list was built around the results that the source calls inconclusive (neither active nor inactive); the mix of calls is not that of the screen. The call rests on the fitted dose curve; in most records, active means well fitted inhibition curve with a large enough effect; inconclusive means small, poorly fitted or top-dose-only effect; inactive means no such curve, though single readings can be large or run the other way. A potency beside an inconclusive call is a rough fit, not a confirmed value. On the % scale 0 is the no-effect control and ±100 the full control effect; potency means the concentration at half of the fitted maximal effect; tags describe the fitted curve by direction and shape.", "data": [{"target": "Isocitrate dehydrogenase [NADP] cytoplasmic (Homo sapiens) (UniProt O75874)", "assay": "qHTS for Inhibitors of mutant isocitrate dehydrogenase 1 (IDH1): qHTS; further: nearly all actives have a fitted effect of over 65% in size", "conditions": "IDH1-R132H enzyme, NADPH consumption, diaphorase/resazurin fluorescence; series mostly up to 76.6 µM; activity change, negative = inhibition: at the top concentration", "outline": "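IDH1-R132H (0.5 ug/mL) preincubated 30 min with compound, then NADPH (0.016 mM) and alpha-KG (2 mM) added; 80 min at RT, pH 7.5. Remaining NADPH coupled via diaphorase/resazurin to fluorescence (540/590 nm); concentration-response curves normalized to no-enzyme control.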", "values": [{"compound": "Cc1nc(C)c(C(=O)NN=Cc2ccc(N(CCCl)CCCl)cc2)s1", "Potency": "inconclusive: 52.1 µM [inhibitor, partial curve, poor fit]"}, {"compound": "Cc1ccc(NC(=O)Nc2cc3c(cc2N2CCCCC2)n(C)c(=O)n3C)cc1Cl", "Potency": "active: 28.2 µM"}, {"compound": "O=C1NC(=O)C(=Cc2ccc(OCCOc3ccc([N+](=O)[O-])cc3)cc2)C(=O)N1", "activity change, negative = inhibition": "inactive: -1.38%"}, {"compound": "CC(=O)[C@H]1CC[C@H]2[C@@H]3CC=C4C[C@@H](OS(=O)(=O)O)CC[C@]4(C)[C@H]3CC[C@]12C", "Potency": "active: 39.8 µM"}, {"compound": "Clc1ccc(COC(Cn2ccnc2)c2ccc(Cl)cc2Cl)c(Cl)c1", "note": "(centres undefined)", "Potency": "inconclusive: 50.1 µM [inhibitor, single point]"}, {"compound": "O=C1NC(=O)N(c2cccc(Cl)c2)C(=O)/C1=C\\c1ccc(Sc2nc3ccccc3[nH]2)o1", "Potency": "inconclusive: 52.1 µM [inhibitor, partial curve, poor fit]"}, {"compound": "N#CC(C#N)=NNc1ccc(-n2ccc(C(F)(F)F)n2)cc1", "Potency": "active: 32.9 µM"}, {"compound": "O=C1NC(=O)N(Cc2ccccc2)C(=O)/C1=C\\C=C\\c1ccco1", "Potency": "inconclusive: 58.5 µM [inhibitor, single point]"}, {"compound": "CC(C)OCCCNC(=O)c1c(N)n(Cc2cccs2)c2nc3ccccc3nc12", "activity change, negative = inhibition": "inactive: -5.86%"}, {"compound": "C[C@H]1COC2=C1C(=O)C(=O)c1c2ccc2c1CCCC2(C)C", "Potency": "inconclusive: 50.1 µM [inhibitor, partial curve, poor fit]"}, {"compound": "O=C1NC(=O)N(c2ccccc2F)C(=O)/C1=C/c1ccc(Sc2nc3ccccc3[nH]2)o1", "Potency": "inconclusive: 44.7 µM [inhibitor, partial curve, poor fit]"}, {"compound": "CN1C(=O)/C(=C\\c2ccc(N3CCCCCC3)cc2)C(=O)NC1=S", "Potency": "active: 46.5 µM"}, {"compound": "COc1cc(CC2C(=O)N(C)C(=O)N(C)C2=O)ccc1OCc1ccccc1", "Potency": "inconclusive: 46.5 µM [inhibitor, partial curve, poor fit]"}, {"compound": "CCOC(=O)c1c(-n2c(C)cc(/C=C3\\C(=O)NC(=O)N(C)C3=O)c2C)sc2c1CCCC2", "Potency": "inconclusive: 26.1 µM [inhibitor, full curve]"}, {"compound": "CCCCn1c(O)c(C=NC2CC3CCC2(C)C3(C)C)c(=O)[nH]c1=O", "note": "(centres undefined)", "activity change, negative = inhibition": "inactive: -1.48%"}, {"compound": "COc1ccc(-c2c3c(=O)n(C)c(=O)n(C)c3c3n2-c2ccccc2NC3c2ccccc2OC)cc1", "note": "(centres undefined)", "Potency": "active: 44.7 µM"}, {"compound": "O=Cc1cn(Cc2ccccc2[N+](=O)[O-])c2ccccc12", "Potency": "inconclusive: 58.5 µM [inhibitor, single point]"}, {"compound": "CCOC(=O)[C@]12Cc3c(cc(OC)c(OC)c3OC)[C@H]1N(Cc1ccccc1)C(=O)c1ccccc12", "Potency": "inconclusive: 15.8 µM [inhibitor, full curve, poor fit]"}, {"compound": "CC1(C)OC(c2ccccc2)=C/C(=C/C=C2C(=O)NC(=S)NC2=O)O1", "Potency": "inconclusive: 11.7 µM [inhibitor, full curve]"}, {"compound": "Cc1ccsc1C(=O)C1CCCN(Cc2cnc(N)nc2)C1", "note": "(centres undefined)", "activity change, negative = inhibition": "inactive: -3.22%"}, {"compound": "COc1ccc(/C=C/C=C2C(=O)NC(=S)NC2=O)cc1", "Potency": "inconclusive: 58.5 µM [inhibitor, partial curve, poor fit]"}, {"compound": "CCC1(C)OC(c2ccccc2)=C/C(=C/C=C2C(=O)NC(=O)NC2=O)O1", "note": "(centres undefined)", "Potency": "inconclusive: 46.5 µM [inhibitor, partial curve]"}, {"compound": "O=C(COC(=O)Cc1ccccc1)Nc1cc(S(=O)(=O)N2CCOCC2)ccc1N1CCCC1", "activity change, negative = inhibition": "inactive: 2.98%"}, {"compound": "CCN(CC)c1ccc(N=Cc2c(O)n(Cc3ccccc3)c(=O)[nH]c2=O)cc1", "Potency": "inactive"}, {"compound": "Cc1ccc2c(=O)n(-c3cccc(Cl)c3)c(=O)[nH]c2c1", "Potency": "inconclusive: 44.7 µM [inhibitor, partial curve, poor fit]"}, {"compound": "O=C(Nc1ccc(OC(F)(F)F)cc1)C1CCN(S(=O)(=O)c2cccs2)CC1", "Potency": "inconclusive: 50.1 µM [inhibitor, single point]"}, {"compound": "C=C(C)C(Cc1c(OC)ccc(C(=O)/C=C/c2ccc(O)cc2)c1O)OO", "note": "(centres undefined)", "Potency": "inconclusive: 44.7 µM [inhibitor, partial curve, poor fit]"}, {"compound": "CCCC[C@@H](C)C[C@@H](C)C(=O)N(C)[C@@H](CC(C)C)C(=O)N[C@H](C(=O)N(C)[C@H](C(=O)N1C[C@@H](O)C[C@H]1C(=O)N1C(=O)C=C[C@@H]1C)C(C)C)C(C)OC(C)=O", "note": "(some centres undefined)", "Potency": "inconclusive: 44.7 µM [inhibitor, partial curve]"}, {"compound": "N#CC(C#N)=Cc1ccc(C=C(C#N)C#N)cc1", "activity change, negative = inhibition": "inactive: 0.513%"}, {"compound": "C[C@]12C=CC(=O)C=C1CC[C@@H]1C2=CC[C@]2(C)[C@@H](C(=O)CN3CCN(c4cc(N5CCCC5)nc(N5CCCC5)n4)CC3)CC[C@@H]12", "Potency": "inconclusive: 44.7 µM [inhibitor, partial curve, poor fit]"}, {"compound": "Cc1cc(C=C2C(=O)NC(=S)NC2=O)c(C)n1-c1ccc2c(c1)OCO2", "Potency": "active: 41.4 µM"}, {"compound": "O=C(Nc1cccc(Cl)c1)N1C[C@H]2C[C@@H](C1)c1cccc(=O)n1C2", "activity change, negative = inhibition": "inactive: 3.12%"}, {"compound": "COc1cc([N+](=O)[O-])c2nc(C)ccc2c1[N+](=O)[O-]", "activity change, negative = inhibition": "inactive: 9.47%"}, {"compound": "CCOCCCn1c(N)c(C(=O)Nc2sc3c(c2C(=O)OC)CCCC3)c2nc3ccccc3nc21", "activity change, negative = inhibition": "inactive: -0.337%"}, {"compound": "C=C1C(=O)O[C@@H]2C[C@@H](C)[C@@H]3C=CC(=O)[C@@]3(C)[C@@H](OC(=O)CC(=O)O[C@H]3[C@@H]4C(=C)C(=O)O[C@@H]4C[C@@H](C)[C@@H]4C=CC(=O)[C@]43C)[C@H]12", "Potency": "inconclusive: 12.6 µM [inhibitor, single point]"}, {"compound": "CC(=O)Nc1ccc(C(=O)OCC(=O)Nc2ccc(Cl)cc2C(=O)c2ccccc2)cc1", "Potency": "inconclusive: 58.5 µM [inhibitor, partial curve, poor fit]"}, {"compound": "CCCCn1c(=O)c(C(=O)Nc2ccccc2S(N)(=O)=O)c(O)c2ccccc21", "Potency": "inconclusive: 52.1 µM [inhibitor, single point]"}, {"compound": "O=C(N/N=C/c1c(O)n(C2CCCCC2)c(=S)[nH]c1=O)c1ccccc1O", "Potency": "inconclusive: 58.5 µM [inhibitor, partial curve]"}, {"compound": "COc1ccc(C(c2c(O)c3ccccc3oc2=O)c2c(C)n(C)n(-c3ccccc3)c2=O)cc1", "note": "(centres undefined)", "Potency": "inconclusive: 70.8 µM [inhibitor, single point]"}, {"compound": "Clc1ccc(CCC(Cn2ccnc2)Sc2c(Cl)cccc2Cl)cc1", "note": "(centres undefined)", "Potency": "inconclusive: 63.1 µM [inhibitor, single point]"}, {"compound": "CCC(=O)Oc1ccc(C(=O)Nc2cccc(C(=O)c3ccccc3)c2)cc1", "Potency": "active: 26.1 µM"}, {"compound": "C=CCn1c(O)c(C(C)=NCCN2CCN(C(=S)NC)CC2)c(=O)[nH]c1=O", "activity change, negative = inhibition": "inactive: 2.83%"}, {"compound": "CCCCCCCCCCCCn1ccc(=N)cc1", "Potency": "inconclusive: 52.1 µM [inhibitor, single point]"}, {"compound": "COc1ccc(Nc2nc(N)nc(CSc3nc4ccccc4s3)n2)cc1", "Potency": "inconclusive: 50.1 µM [inhibitor, single point]"}, {"compound": "CNCC(=O)c1ccccc1", "Potency": "inconclusive: 50.1 µM [inhibitor, single point]"}, {"compound": "COCCCn1c(N)c(C(=O)Nc2sc3c(c2C(=O)OC)CCCC3)c2nc3ccccc3nc21", "Potency": "inconclusive: 18.5 µM [inhibitor, single point]"}, {"compound": "COc1ccc(C2=C(C(C)=O)Sc3nnc(-c4ccc(C)cc4)n3N2C(C)=O)cc1OC", "Potency": "inconclusive: 50.1 µM [inhibitor, partial curve, poor fit]"}, {"compound": "COc1cc(/C=C(/C)[N+](=O)[O-])ccc1OCc1ccccc1Cl", "Potency": "active: 46.5 µM"}, {"compound": "O=C(O)CSCC(=O)N(Cc1ccccc1)c1nc(-c2ccccc2)c(-c2ccccc2)s1", "Potency": "inconclusive: 52.1 µM [inhibitor, partial curve]"}, {"compound": "Cc1cc(OC(=O)c2ccco2)c2c3c(c(=O)oc2c1)CCCC3", "Potency": "inconclusive: 58.5 µM [inhibitor, single point]"}, {"compound": "CC1N(C)c2cc(NC(=O)c3ccco3)c(P(=O)(Nc3ccc([N+](=O)[O-])cc3)N3CCOCC3)cc2C1(C)C", "note": "(centres undefined)", "Potency": "inconclusive: 50.1 µM [inhibitor, partial curve, poor fit]"}, {"compound": "COC(=O)C(O)(c1ccc(NC(=S)NC(=O)c2ccc(Cl)cc2Cl)c(C)c1)C(F)(F)F", "note": "(centres undefined)", "Potency": "inconclusive: 63.1 µM [inhibitor, single point]"}, {"compound": "Cc1cc(C)n(-c2ccc(NN=C(C#N)C#N)cc2)n1", "Potency": "inconclusive: 58.5 µM [inhibitor, single point]"}, {"compound": "CCCCOCCCn1c(N)c(C(=O)OCCOC)c2nc3ccccc3nc21", "activity change, negative = inhibition": "inactive: 9.08%"}, {"compound": "Cc1ccc(NC(=O)CSc2nc(-c3ccco3)cc(C(F)(F)F)n2)c(C)c1", "Potency": "inconclusive: 70.8 µM [inhibitor, single point]"}, {"compound": "CCOc1ccc(C2c3c(-c4ccccc4O)n[nH]c3C(=O)N2Cc2ccncc2)cc1", "note": "(centres undefined)", "Potency": "inconclusive: 44.7 µM [inhibitor, partial curve, poor fit]"}, {"compound": "CCOP(=O)(OCC)C(O)c1ccccc1", "note": "(centres undefined)", "activity change, negative = inhibition": "inactive: 8.24%"}, {"compound": "CSc1ccc(CN2CCN(C(=O)COc3ccc(C)cc3)CC2)cc1", "activity change, negative = inhibition": "inactive: -0.12%"}, {"compound": "CCOP(=O)(C#Cc1ccccc1)C(O)c1ccc(Br)cc1", "note": "(centres undefined)", "activity change, negative = inhibition": "inactive: 5.09%"}, {"compound": "CCc1ccc(-n2c(SC(CC)C(=O)N(CC)CC)nc3n[nH]c(C)c3c2=N)cc1", "note": "(centres undefined)", "Potency": "inconclusive: 39.8 µM [inhibitor, partial curve, poor fit]"}, {"compound": "C=Cc1cc(OC)c2c(c1)c(=O)oc1c2cc(OC)c2c(O)ccc(C3OC(C)C(O)C(C)(O)C3O)c21", "note": "(centres undefined)", "Potency": "inconclusive: 41.4 µM [inhibitor, partial curve, poor fit]"}, {"compound": "COc1cc2c(cc1OC)-c1c(OC)c(OC)c(OC)c3ccnc(c13)C2=O", "Potency": "inconclusive: 35.5 µM [inhibitor, partial curve]"}, {"compound": "Cc1cc(C)cc(Oc2nc3ccccn3c(=O)c2/C=C(\\C#N)c2nc3ccccc3s2)c1", "Potency": "inconclusive: 44.7 µM [inhibitor, partial curve, poor fit]"}, {"compound": "c1ccc(CCN2CCC(N3CCN(c4ccccc4)CC3)CC2)cc1", "activity change, negative = inhibition": "inactive: 12.1%"}, {"compound": "CCCCCn1c(=O)c(C(=O)Nc2ccccc2S(N)(=O)=O)c(O)c2ccccc21", "Potency": "inconclusive: 16.5 µM [inhibitor, full curve, poor fit]"}, {"compound": "Clc1ccc(CSC(Cn2ccnc2)c2ccc(Cl)cc2Cl)cc1", "note": "(centres undefined)", "Potency": "inconclusive: 50.1 µM [inhibitor, partial curve, poor fit]"}, {"compound": "Nc1ncc([N+](=O)[O-])s1", "Potency": "inconclusive: 50.1 µM [inhibitor, single point]"}, {"compound": "CC(=O)C12CC(C)=C(C)CC1CC1C3CCC4=CC(=O)CCC4(C)C3CCC12C", "note": "(centres undefined)", "Potency": "inconclusive: 58.5 µM [inhibitor, single point]"}, {"compound": "CC(c1ccccc1)n1cncc1C(=O)N1CCCC1=O", "note": "(centres undefined)", "activity change, negative = inhibition": "inactive: 3.72%"}, {"compound": "O=C1NC(=S)N(C2CC2)C(=O)/C1=C/c1ccc2c(c1)CCN2CCCCl", "Potency": "inconclusive: 58.5 µM [inhibitor, single point]"}, {"compound": "O=C1NC(=O)C(=Cc2ccc(-c3ccc(Cl)cc3)o2)C(=O)N1", "Potency": "inconclusive: 44.7 µM [inhibitor, partial curve]"}, {"compound": "CCCCn1c(O)c(C(CC)=Nc2ccc(OCC)cc2)c(=O)[nH]c1=O", "activity change, negative = inhibition": "inactive: 4.05%"}, {"compound": "CCCCCOc1ccc(C)cc1CN(CCCl)CCCl", "Potency": "inconclusive: 29.3 µM [inhibitor, partial curve]"}, {"compound": "O=C1NC(=S)SC1=Cc1ccc(N(CCCl)CCCl)cc1", "Potency": "inconclusive: 58.5 µM [inhibitor, single point]"}]}]}
